From US20150038430A1 (published 2015)

Molecular target: SP-6 BIM wild-type (unstapled)
Assay: MS-based binding affinity

Sequence of SP-6 BIM wild-type (unstapled) (Q07817 1-212): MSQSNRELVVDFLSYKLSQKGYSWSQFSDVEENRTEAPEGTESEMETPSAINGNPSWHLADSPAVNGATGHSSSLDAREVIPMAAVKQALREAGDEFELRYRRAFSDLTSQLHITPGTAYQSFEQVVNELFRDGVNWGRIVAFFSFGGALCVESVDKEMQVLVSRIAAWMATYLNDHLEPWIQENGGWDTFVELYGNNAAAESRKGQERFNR

B1: Bcl-xL (other)
chain: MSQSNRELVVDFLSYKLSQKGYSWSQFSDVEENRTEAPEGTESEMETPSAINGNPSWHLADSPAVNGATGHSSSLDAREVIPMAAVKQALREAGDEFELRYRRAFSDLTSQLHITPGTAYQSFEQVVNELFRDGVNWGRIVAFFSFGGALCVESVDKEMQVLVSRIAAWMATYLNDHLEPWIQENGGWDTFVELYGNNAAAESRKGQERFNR
  Kd: < 100 nM
